# In all, about 33,000 sequences were measured (“E-score (-0.5 to 0.5)”: median about -0.013, highest 2% from about 0.3 on). The list shows a part of the results.
# Target: T1, Msn1 (UniProt P22148)
# T1 sequence: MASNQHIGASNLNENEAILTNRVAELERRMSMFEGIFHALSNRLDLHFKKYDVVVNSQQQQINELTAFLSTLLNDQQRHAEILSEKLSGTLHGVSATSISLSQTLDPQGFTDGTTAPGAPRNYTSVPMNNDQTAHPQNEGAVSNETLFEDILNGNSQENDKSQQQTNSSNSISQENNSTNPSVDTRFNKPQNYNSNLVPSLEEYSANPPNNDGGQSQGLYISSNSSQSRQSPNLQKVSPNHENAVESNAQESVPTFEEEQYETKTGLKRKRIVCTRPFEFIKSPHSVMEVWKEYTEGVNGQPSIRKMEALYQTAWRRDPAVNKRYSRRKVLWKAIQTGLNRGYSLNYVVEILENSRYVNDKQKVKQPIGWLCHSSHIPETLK
# Experiment: PBM E-score (8-mer binding enrichment) (E-score (-0.5 to 0.5)); higher = stronger / more preferred TF binding; most listed sequences are background and not binding sites
# Settings: protein concentration: 200 nM; construct: GST-full length
# Method in brief: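 For each ungapped eight-base word taken together with its reverse complement, the Universal PBM Analysis Suite assigned an E-score. Binding data came from GST-tagged yeast transcription factors, applied at about 100-200 nM, on universal all-10-mer Agilent arrays made double-stranded by primer extension. Fluorescent anti-GST marked bound protein, and scans were normalised with masliner.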
row,Sequence,PBM E-score
1,CTGCACAA,0.011
2,CAACCGAC,0.187
3,CTTCGTGA,0.00689
4,ATGGGTGC,-0.12
5,AGGAGTCC,-0.192
6,TCGGCACA,0.0287
7,ACCCGGCT,-0.169
8,GACGGCCC,-0.328
9,ATCATCCG,-0.0827
10,CCGAGTTA,0.0697
11,GACTGTTA,0.0353
12,TCTGCACA,0.077
13,AAGCAGGC,-0.309
14,CTGTTCCA,-0.0479
15,AAGACAAC,0.221
16,GCAAGGAC,0.395
17,GCACCTGA,0.133
18,GCGGAAAA,0.113
19,AAGTCTAG,-0.107
20,ACCATGAC,0.181
21,ATTTGACC,0.0269
22,ACACAGTA,0.239
23,ACCCTGAT,-0.0959
24,ACAGAACT,0.065
25,AACGATGG,-0.107

row,Sequence,PBM E-score
1,CTGATATC,-0.0457
2,AATCTAAA,0.0237
3,AGATGAGA,-0.0935
4,ATAAGGGC,-0.11
5,ATCACCAC,0.0496
6,AGGCAAAC,0.0501
7,ACTTAGCG,0.074
8,GTCGAACA,0.169
9,ACTTTGAA,0.0379
10,CAGTAGTC,-0.305
11,CACCGCTC,-0.232
12,ATGATATG,0.213
13,GTGCACGA,-0.0525
14,CCTTCTCG,-0.268
15,GGAGTGAC,0.0714
16,CAGAGAGG,-0.274
17,AAAGAGTT,-0.0984
18,AAACAACC,0.00751
19,GTTAGAAA,-0.0269
20,CCACGGGG,-0.212
21,CCGCCAAC,-0.179
22,GTGAGAAA,0.124
23,AGAGAGGA,0.00154
24,ATTTCTGC,0.164
25,CTTAAGCA,-0.0812

row,Sequence,PBM E-score
1,CCCGCATA,0.0346
2,GCCGTACA,0.177
3,CAGATAAC,-0.0567
4,ACTCGTGG,0.0321
5,CTCTCAGA,-0.151
6,ACCGTTAG,0.0723
7,AGCCAATG,-0.128
8,AATATGAC,0.243
9,CCTATTAA,0.0343
10,ACCGGTAA,-0.0138
11,GTGTCGTA,0.228
12,CCCTGCCG,-0.254
13,GAGGAGGA,-0.304
14,AATTATTG,0.139
15,TAGATTCA,-0.192
16,CCCGGACA,0.425
17,ACACGCGA,0.216
18,ATCCAGCC,-0.109
19,CTTATGTA,0.124
20,TAACGTAA,-0.0647
21,CGGACAGA,0.302
22,CTTTTAAC,0.0576
23,GTGCGTCA,0.0646
24,CAACTAGC,0.139
25,GGTACGCA,0.141

row,Sequence,PBM E-score
1,GTGCCGTA,0.0364
2,CGGGTCAC,-0.134
3,AAACGGTT,-0.0672
4,ACGCCTAG,-0.0718
5,AGAATCGA,0.0469
6,CGTATCAG,-0.0169
7,ATTCAGAG,0.152
8,CCGAACTA,0.074
9,CACGAGAC,0.0936
10,GTCGGTCA,0.0653
11,AGACTGAA,0.0137
12,ACCTCCAT,-0.0948
13,CCCGTTCG,-0.0405
14,AACTTGGT,0.0403
15,AAAGTCCG,0.342
16,CCACATAG,-0.102
17,AAAGTCAC,0.266
18,CCCCCTAA,-0.259
19,TCACTACA,0.161
20,TACCAATA,0.0996
21,AAAAAGCA,-0.0461
22,GAGTTCAC,-0.0688
23,AAAGGATG,0.0884
24,GGACCGCC,-0.202
25,ACCGTGCT,-0.258

row,Sequence,PBM E-score
1,AGTATTGG,-0.0788
2,CAGGTATG,0.00988
3,CGCTCGAC,-0.116
4,TCGGATCA,0.157
5,CTCCTGAC,-0.00148
6,CAGTAAGG,0.0234
7,CTTAGCGC,0.0554
8,AGAACGAC,0.0155
9,AAACGAAT,0.0996
10,AGCGTCTG,-0.0393
11,TATTCAGA,0.0873
12,ATCGTTCC,-0.227
13,ACCCTTAG,-0.284
14,ATATCACA,-0.0916
15,AAACGTAA,0.188
16,CACGGGTA,-0.0296
17,CAAGGGAC,0.184
18,AGATGGTA,-0.021
19,CTGCTAAA,0.019
20,CGTGGCGC,-0.164
21,AGTTACAT,-0.0774
22,GCGGGACA,0.359
23,AAACTAGA,0.0886
24,CTCTACTC,-0.0572
25,GTTAGAGA,-0.157

row,Sequence,PBM E-score
1,AATTCCCA,0.0207
2,AGAACTTA,0.138
3,ACCTAGGG,-0.032
4,ATAGGTAC,0.199
5,CTTTCGAA,0.0657
6,AGACCATG,-0.223
7,TAAGAGAA,0.177
8,GATGGCTA,0.0368
9,TGAACACA,-0.0391
10,AGTCATAG,-0.0132
11,CGTCAGCC,-0.00769
12,ATAATACA,0.262
13,CGAACAAC,0.113
14,ATAGTCCG,0.25
15,GATGGGCC,-0.344
16,GATGAACC,-0.00439
17,ATGTAACG,0.142
18,CAGCCAAG,-0.0807
19,AACTGGGG,-0.307
20,ATACTACC,-0.132
21,AAAGACAC,0.213
22,CCCTTTCG,0.0248
23,AACTTCAC,0.0849
24,AGTTCTAG,-0.00733
25,AGGCTAGC,-0.00073

row,Sequence,PBM E-score
1,ACAGCAGT,-0.16
2,CGTGGGTC,-0.167
3,AGAGGGAC,0.115
4,CGAAGCGA,-0.0391
5,AAACTCAA,0.16
6,ATGTTTCC,0.0846
7,GGCGCAAA,-0.0888
8,AGCCCAAA,0.156
9,CCCGCCAA,-0.164
10,GCCAGAGC,-0.323
11,CGGGCGGC,-0.182
12,CAATCTCC,-0.0425
13,AACCCGAC,0.184
14,AAGTGACT,0.0348
15,CCTGGTGA,-0.134
16,GAGTATAA,0.0596
17,TCCCTAAA,0.0496
18,AGACGGAA,0.0945
19,ACGAATTA,0.032
20,AAAGTGAA,0.142
21,ACTCCACA,-0.103
22,ATTCGGGC,-0.00679
